Experimental data published in PubChem BioAssay AID624417 (National Center for Advancing Translational Sciences (NCATS), 2012).
The campaign covered roughly 410,000 compounds. About 6,400 (1.6%) were called active. Inconclusive results, whose numbers are uncertain, are shown with a selection of clear calls. Calls come from the whole dose curve; as a rule, active = well fitted inhibition curve with a large enough effect; inconclusive = small, poorly fitted or top-dose-only effect; inactive = no such curve, though single readings can be large or run the other way. Potencies of inconclusive entries are left out as doubtful fits.
% is set by controls: 0 for no effect and ±100 for the full control effect; potency is the fitted concentration of half-maximal effect; tags give direction and shape of the fitted curve.
Note: nearly all actives have a fitted effect of over 55% in size.

The compounds below were run against Glucagon-like peptide 1 receptor (Homo sapiens) (UniProt P43220) (assay: qHTS of GLP-1 Receptor Inverse Agonists (Inhibition Mode)). Details: HEK293 GLP-1R CRE-luciferase, luminescence, 24 h, GLP-1R form is constitutively active; activity change, negative = inhibition: at 38.3 µM (top of the series) unless noted.
Chain of UniProt P43220 (P43220 whole entry, looked up): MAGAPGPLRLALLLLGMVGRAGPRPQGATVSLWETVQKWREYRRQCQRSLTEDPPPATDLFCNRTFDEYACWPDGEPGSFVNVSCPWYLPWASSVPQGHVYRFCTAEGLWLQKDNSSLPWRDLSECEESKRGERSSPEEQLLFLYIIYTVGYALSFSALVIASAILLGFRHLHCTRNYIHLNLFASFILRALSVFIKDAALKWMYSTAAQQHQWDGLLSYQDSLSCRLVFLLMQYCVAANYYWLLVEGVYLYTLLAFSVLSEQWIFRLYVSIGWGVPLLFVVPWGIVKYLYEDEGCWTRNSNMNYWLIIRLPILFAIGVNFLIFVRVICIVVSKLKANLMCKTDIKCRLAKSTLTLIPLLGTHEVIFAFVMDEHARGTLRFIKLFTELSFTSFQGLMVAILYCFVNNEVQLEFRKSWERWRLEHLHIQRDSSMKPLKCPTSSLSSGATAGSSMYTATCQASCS
Outline: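 Inverse agonists were sought by their lowering of basal cAMP reporter luciferase output in HEK293 cells stably carrying constitutively active human GLP-1R, after 24 h compound treatment.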
With `CCCCc1c(C)c(C#N)c2nc3ccccc3n2c1Nc1c(C)n(C)n(-c2ccccc2)c1=O` the Potency was inconclusive [inhibitor, partial curve, poor fit].
With `Nc1nc(N2CCN(C(c3ccccc3)c3ccccc3)CC2)n[nH]1` the Potency was inconclusive [inhibitor, single point].
`COc1ccc(F)c(CN2CCC(CO)(Cc3cccc(C(F)(F)F)c3)CC2)c1` was tested, and the Potency was inconclusive [inhibitor, partial curve, poor fit].
For `COc1ccccc1NC(=O)Nc1ccc2c(c1)CCC2`, the Potency was inconclusive [inhibitor, single point].
`COc1ccccc1-c1nnc(C2CCN(S(=O)(=O)c3ccc(CC(C)C)cc3)CC2)o1` was tested, and the Potency was inconclusive [inhibitor, single point].
For `Cc1ccnc(N2CCN(C(=O)CSc3nc4ccccc4nc3N3CCC(C)CC3)CC2)c1`, the Potency was inconclusive [inhibitor, partial curve, poor fit].
`Cc1cc(OC(C)C(=O)NNC(=O)Nc2ccc(F)cc2F)cc(C)c1Cl` (centres undefined) was tested, and the Potency was inconclusive [inhibitor, partial curve, poor fit].
With `CC(C)(C)c1ccc(CC(=O)N2CCC2(C)C(=O)NCc2cccs2)cc1` (centres undefined) the Potency was inconclusive [inhibitor, single point].
For `CC(NC(=O)c1noc2c1CCCCC2)c1ccccc1` (centres undefined), the Potency was inconclusive [inhibitor, single point].
For `NC(=NC(=O)c1ccccc1)N1N=CCC1c1ccccc1` (centres undefined), the Potency was inconclusive [inhibitor, full curve, poor fit].
For `Cc1c(C(=O)NCc2ccc(Cl)c(Cl)c2)sc(=O)n1Cc1cccc(F)c1`, the Potency was inconclusive [inhibitor, single point].
In the case of `C=C(Cl)COc1ccc2c(CCC)cc(=O)oc2c1`, the Potency is reported as inconclusive [inhibitor, partial curve, poor fit].
`COC(=O)C1=C(CCc2ccccc2)NC(=O)NC1c1ccc(Br)cc1` (centres undefined) was tested, and the Potency was inconclusive [inhibitor, single point].
In the case of `Oc1ccc(C[C@@H]2CNCCN2CCc2cc(C(F)(F)F)cc(C(F)(F)F)c2)cc1`, the Potency is reported as inconclusive [inhibitor, partial curve, poor fit].
For `CCN(CC)c1nc(NN)nc(Nc2ccc(C)c(Cl)c2)n1`, the Potency was inconclusive [inhibitor, single point].
With `Cc1ccc(C)c(Nc2nc3ccccc3[nH]2)c1` the Potency was inconclusive [inhibitor, partial curve, poor fit].
In the case of `Cc1ccc(S(=O)(=O)c2c(COC(=O)c3ccccc3Cl)c(-c3ccccc3)nn2C)cc1`, the Potency is reported as inconclusive [inhibitor, partial curve, poor fit].
`CC(C)[C@H]1COCCS(=O)(=O)N1Cc1ccccc1-c1cccc2c1oc1ccccc12` was tested, and the Potency was inconclusive [inhibitor, partial curve, poor fit].
In the case of `COc1ccc(CCN2C(=O)N(c3ccc(OC)cc3)C(=O)C2CC(=O)Nc2ccccc2)cc1` (centres undefined), the Potency is reported as inconclusive [inhibitor, single point].
`C[C@@H]1Cn2cnc(C(=O)NCC(=O)OC(C)(C)C)c2C(=O)N1` was tested, and the “activity change, negative = inhibition” value was inactive: -6.84%.
`CCOc1ccc(NC(=S)NCCCn2ccnc2)cc1` was tested, and the “activity change, negative = inhibition” value was inactive: -18.4%.
In the case of `Cc1ccc(S(=O)(=O)N(C(=O)c2ccncc2)c2ccc(OC(=O)c3ccncc3)c3ccccc23)cc1`, the Potency is reported as inconclusive [inhibitor, single point].
`O=C(CN1CCN(Cc2ccc3c(c2)OCO3)CC1)Nc1ccc(F)cc1` was tested, and the Potency was inconclusive [inhibitor, partial curve, poor fit].
In the case of `NC(=O)C1(N2CCCCC2)CCN(CC(=O)Nc2ccccc2Sc2ccccc2)CC1`, the Potency is reported as inconclusive [inhibitor, single point].
`CC(=O)N1c2ccc(S(=O)(=O)N3CCC(C(=O)NC4CCC(C)CC4)CC3)cc2CC1C` (centres undefined) was tested, and the “activity change, negative = inhibition” value was inactive: 19.6%.
`CC(=O)N1N=C(c2ccc(Cl)cc2)OC1(C)C` was tested, and the “activity change, negative = inhibition” value was inactive: 1.54%.
For `CCCCCN(C(=O)CCC(=O)OCC(=O)c1c(C)cc(C)cc1C)c1c(N)n(CCCC)c(=O)[nH]c1=O`, the Potency was inconclusive [inhibitor, single point].
For `COc1cccc(NC(=O)C2CCN(C(=O)[C@@H]3Cc4ccccc4CN3C(=O)OC(C)(C)C)CC2)c1`, the Potency was inconclusive [inhibitor, partial curve, poor fit].
With `Cc1ccc(S(=O)(=O)N(C)c2ccc3ccccc3c2)cc1` the Potency was inconclusive [inhibitor, single point].
In the case of `COc1ccc(C2=C(C=C(C#N)C#N)C(c3ccccc3C)c3ccccc3O2)cc1OC` (centres undefined), the Potency is reported as inconclusive [inhibitor, single point].
In the case of `COc1cccc(OCC(=O)N(C)Cc2nc(-c3cccc(C)c3)no2)c1`, the Potency is reported as inconclusive [inhibitor, partial curve, poor fit].
`COC(=O)c1ccc2nc(-c3ccc(F)cc3)c(CC3CCCCC3)n2c1` was tested, and the Potency was inconclusive [inhibitor, partial curve, poor fit].
For `CNc1nc(NCc2ccc(N(C)C)cc2)c2sccc2n1`, the Potency was inconclusive [inhibitor, single point].
In the case of `O=C(c1cccc(Cl)c1)N1CCC(=O)N(C(COCc2cccc(Cl)c2)Cc2ccccc2)CC1` (centres undefined), the “activity change, negative = inhibition” value is reported as inactive: 4.31%.
`O=C(NCc1ccccc1)[C@@H]1CCCN1C(=O)[C@@H]1CCCN1C(=O)c1cccc2ccccc12` was tested, and the “activity change, negative = inhibition” value was inactive: 29%.
For `CN(C)CCCN(C(=O)CCc1ccccc1)c1nc2ccc(Br)cc2s1`, the Potency was active: 6.31 µM.
`Clc1cccc(-c2sc(Nc3ccccc3)n[n+]2-c2ccccc2)c1Cl` was tested, and the Potency was inconclusive [inhibitor, partial curve, poor fit].
In the case of `C/C(CC(=O)Nc1ccc(Br)cc1)=N\NC(=O)c1cccc(O)c1`, the Potency is reported as inconclusive [inhibitor, partial curve, poor fit].
`Cc1cc(NC(=O)c2c(F)cccc2F)n(-c2nc3ccccc3[nH]2)n1` was tested, and the Potency was inconclusive [inhibitor, single point].
In the case of `C=CCNc1sc(C(=O)c2ccccc2)c(N)c1-c1nc2ccccc2s1`, the Potency is reported as inconclusive [inhibitor, full curve, poor fit].
For `Cc1cccc(C)c1NC(=O)C1CCCN1S(=O)(=O)c1cccc2nsnc12` (centres undefined), the “activity change, negative = inhibition” value was inactive: 11.2%.
In the case of `COc1ccc(NC(=O)Cn2nnc(-c3nc(-c4ccncc4)no3)c2N)cc1OC`, the “activity change, negative = inhibition” value is reported as inactive: 13.1%.
For `O=C(N/N=C/C=C/c1ccccc1)NC1CCCCC1`, the Potency was inconclusive [inhibitor, partial curve].
For `COc1ccc(N2CCN(C(=O)Cc3ccc(S(=O)(=O)N4CCOCC4)s3)CC2)cc1`, the “activity change, negative = inhibition” value was inactive: -6.03%.
In the case of `Cc1ccc(Cn2cc(CCC(=O)NCC(C)c3ccccc3)c3ccccc32)cc1` (centres undefined), the Potency is reported as inconclusive [inhibitor, partial curve, poor fit].
`COc1ccc(CCC(=O)N2CCCC(Nc3ccc(C)c(C)c3)C2)cc1OC` (centres undefined) was tested, and the Potency was inconclusive [inhibitor, single point].
In the case of `c1ccc(C(c2nnnn2Cc2cccs2)N2CCN(C3CCCC3)CC2)cc1` (centres undefined), the Potency is reported as inconclusive [inhibitor, single point].
With `Cc1nc2c(c(C)c1CCC(=O)Nc1ccc(F)cc1)c(=O)n(C)c(=O)n2C` the “activity change, negative = inhibition” value was inactive: 2.71%.
In the case of `COc1cccc(CNS(=O)(=O)c2cc(-c3cc(C)no3)ccc2C(C)C)c1`, the Potency is reported as inconclusive [inhibitor, partial curve, poor fit].
In the case of `O=C1CCC(C(=O)OC(C(=O)Nc2cc(Cl)cc(Cl)c2)c2ccccc2)=NN1` (centres undefined), the Potency is reported as inconclusive [inhibitor, single point].
For `O=C(Nc1ccc(-c2nc3ncccc3o2)cc1)c1ccc(Br)o1`, the “activity change, negative = inhibition” value was inactive: 54.2%.
In the case of `O=C(Cn1ccc2cc(S(=O)(=O)N3CCCCCC3)ccc21)NCc1cccc(Cl)c1`, the Potency is reported as inconclusive [inhibitor, single point].
For `OC[C@@H]1CN(Cc2ccncc2)C[C@H](n2cnc3c(N4CCN(c5ccccc5)CC4)ncnc32)O1`, the “activity change, negative = inhibition” value was inactive: -29.5%.
With `O=C(Nc1ccc(CN2CCOCC2)cc1)c1ccco1` the Potency was inconclusive [inhibitor, single point].
`Nc1nc(-c2cccnc2)nn1S(=O)(=O)c1ccccc1` was tested, and the “activity change, negative = inhibition” value was inactive: 38.3%.
In the case of `Cc1coc2c(C)c3oc(=O)c(CCC(=O)N4CCCCC4)c(C)c3cc12`, the “activity change, negative = inhibition” value is reported as inactive: 2.37%.
With `CCCN1CCN(CCCNC(=O)c2cc3c(s2)-c2ccccc2OC3)CC1` the Potency was inconclusive [inhibitor, partial curve, poor fit].
`COCCn1c(C)cc(O)c(C(c2ccccc2Cl)N2CCCCC2)c1=O` (centres undefined) was tested, and the “activity change, negative = inhibition” value was inactive: -17%.
In the case of `N#Cc1ccccc1NC(=S)Nc1ccc(F)cc1`, the “activity change, negative = inhibition” value is reported as inactive: 19.8%.
For `Cc1cc(O)cc(O)c1-c1onc(C(F)(F)F)c1-c1cscn1`, the Potency was active: 7.94 µM.
For `c1ccc(Nc2cccc(Nc3ccccc3)c2)cc1`, the Potency was inconclusive [inhibitor, single point].
With `CCC(C)Sc1ccc([C@@H]2[C@H]3C(=O)N(CC)C(=O)[C@H]3[C@]3(C(=O)OC)CCCCN23)cc1` (some centres undefined) the Potency was inconclusive [inhibitor, partial curve, poor fit].
In the case of `COc1ccc2cc3cc(C(=O)NCCN4CCN(c5ccccc5F)CC4)oc3nc2c1`, the Potency is reported as inconclusive [inhibitor, full curve, poor fit].
`CC(C1CC1)N(Cc1ccccc1)C(=S)Nc1ccccc1` (centres undefined) was tested, and the Potency was inconclusive [inhibitor, single point].
